Test results published in the supplement of paper PMC3334620.
Over roughly 33,000 sequences, “E-score (-0.5 to 0.5)” has its median near -0.017; the highest 2% begin near 0.3. Some of the results follow.

Target: T1, Sut1 (UniProt P53032)
T1 sequence: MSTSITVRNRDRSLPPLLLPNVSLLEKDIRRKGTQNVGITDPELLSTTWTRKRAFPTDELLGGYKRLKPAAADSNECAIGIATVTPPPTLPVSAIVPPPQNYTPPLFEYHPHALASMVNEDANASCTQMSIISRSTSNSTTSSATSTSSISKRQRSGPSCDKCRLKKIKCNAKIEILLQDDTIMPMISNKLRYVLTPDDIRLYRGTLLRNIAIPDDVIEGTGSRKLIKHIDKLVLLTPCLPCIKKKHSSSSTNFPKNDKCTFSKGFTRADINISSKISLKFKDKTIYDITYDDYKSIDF
Assay: PBM E-score (8-mer binding enrichment) (E-score (-0.5 to 0.5)); higher = stronger / more preferred TF binding; most listed sequences are background and not binding sites
Details: protein concentration: 200 nM; construct: GST-full length
Procedure: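 Universal 'all 10-mer' protein binding microarrays (Agilent AMADID 015681) probed with GST-tagged S. cerevisiae TFs (full-length or DBD) made by in vitro transcription/translation (PURExpress), about 100-200 nM. Bound TF was detected with fluorescent anti-GST. Each ungapped 8-mer (which stands for itself and its reverse complement) is scored by the PBM enrichment score (E-score), a modified Wilcoxon-Mann-Whitney statistic from -0.5 to +0.5, computed with the Universal PBM Analysis Suite. Scale: above 0.35 generally sequence-specific binding.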

Sequence	PBM E-score
CCTCAAGG	-0.176
TGGCGTAA	-0.113
AAAGAGGC	0.0186
CGATCCAC	-0.146
ATGCAGGC	-0.173
CGTAATAA	0.0956
TTCCACAA	0.168
TACAGCCA	-0.098
CGTATCGC	-0.104
CGCACTAA	0.0754
ACGAGGAC	-0.0726
ATCGAAGA	0.156
CTCCTCTC	-0.171
GCCCCCAC	-0.255
CTGAACGA	-0.256
CACGCCTG	-0.334
AAGTACCG	0.141
CGCATTGC	-0.174
ATGCCGTA	0.0177
CGGATCAC	0.19
GCCTTACA	-0.0669
CCACCGTC	-0.154
TATGCTAA	0.0693
AGTAAGCG	-0.00838
AAGTTCTC	0.211

Sequence	PBM E-score
TATACGGA	0.312
CCCTTTAA	0.0269
AGACAGCC	-0.123
AAGTTTGT	0.202
CCATCCGC	-0.157
CACACACC	-0.0548
CTCCGGCC	0.376
CTCTCTCA	-0.134
CATCTCAC	-0.142
GTCACATA	0.15
AACCGATC	0.00599
AGCACCAA	0.17
ACATCGTG	-0.184
AAGGATTG	0.0777
GCATGCAC	-0.0395
CCGAATCA	0.0456
GCCATTAA	0.0379
ACAGTCCC	-0.2
TAGGGGAA	-0.0298
AGAAGGAT	-0.049
ACCCCATA	-0.115
CCTTGAAG	-0.0873
GACTCCCA	-0.256
GCGTTATA	-0.0273
CATGGGTC	-0.185

Sequence	PBM E-score
AGCTCTAG	-0.0334
GAATCAAC	0.162
GACACGAA	-0.0977
GGGTCGTA	-0.113
CACATCAA	0.0836
TACGTGCA	-0.171
CGTATATC	0.0188
ACCGCAAC	0.165
ATCCCCCC	-0.461
CTCAGGCC	-0.305
CGTGCCTA	-0.182
ACTCCGCT	0.452
AGTACTCG	0.0601
CTTTTCCA	0.0423
CGCCAGGC	-0.0821
AGTTCACA	0.148
AGGTTAGA	-0.127
TCAATCAA	0.177
ATGGAGTG	-0.0878
ACTATCAT	0.18
AAACGGCT	-0.0414
AAGTGAAG	0.0277
AGCAGGCA	-0.137
TACCACAA	0.112
TCCTAACA	0.016

Sequence	PBM E-score
AGTCGATC	-0.115
AAAACACC	0.0604
ACGTAGCG	-0.233
CTTCAGCC	-0.227
ACGACAAA	0.172
AAGAGTCT	-0.129
CAAGGTCG	-0.176
CGGGCCTC	-0.145
CACTGAAG	0.0667
CGAGTTAA	0.146
AATTGGTA	0.115
GCTGTCTA	-0.0267
CGATTCAG	0.0122
CCATTAGC	0.00246
TCCCGACA	0.119
GTCCTCTA	-0.187
AAAGAATA	0.241
AATAAGAA	0.197
AGACTTCA	-0.0862
CAACGGAC	0.291
ATGGGCCC	-0.179
AGGGCGTC	-0.0183
CTTCGTGC	-0.0943
CTCCCCTA	-0.145
ATTTTACA	0.125

Sequence	PBM E-score
CGCCGCAG	-0.147
CGCTTGCA	0.139
ACGCCAGC	-0.182
GGCGACTA	-0.185
CTCAATCC	0.00324
TAGCCTCA	-0.134
CCGCTGCC	-0.153
CAAATACC	0.0342
ACGACGCC	-0.173
ATGCGAGA	0.106
CATCAAAG	-0.169
ACTACGTG	-0.352
AAACTATA	0.177
AAACCTTA	0.203
CACCGTGG	-0.194
CAGTCCGC	0.196
GGCTGCGA	-0.067
AGCTAAAG	0.097
ACTGGGAT	0.0387
ACATATAC	0.088
CGGCAGGC	-0.137
AGGCAAGG	-0.185
ATGGACGG	0.164
CGTAATTA	0.206
GGAGTCGA	0.0511

Sequence	PBM E-score
CGTACGAC	0.0392
CAGATCAC	0.0266
CGATGGAG	0.0475
GTGATTCA	-0.119
CGGCGGGC	-0.0779
ACGCTGGG	-0.254
GGTAGTTA	0.166
AGTAACAA	0.138
CGCCTACA	0.00062
CGCCTAGC	-0.211
GCACGCAA	-0.143
GGAATATA	0.088
CTACAGAG	-0.133
ATGGTGGC	-0.286
GAGTCATA	0.0512
ATATTTAC	0.282
AAAAGTGA	0.237
GGAACGGA	0.211
CATGCAAG	-0.0592
CCGAGCTA	0.0447
CACGAGGA	-0.225
TATGTAGA	0.0717
AGATGAGC	-0.0376
ATCCTGTA	0.0559
AGCAAATG	-0.0134

Sequence	PBM E-score
TAGAGACA	-0.00896
GGCATTAC	0.0477
GAGATCTC	0.126
CAATCGGG	-0.0802
CTGCGTCC	-0.193
GGCTTTAA	0.0546
CGCGTCAA	-0.0129
ATCGTGAG	-0.0729
AGCCAAAC	0.0722
CGAATCTC	0.037
ATACTAAA	0.202
ATGCCTAA	-0.021
CGCTGGAG	-0.102
CACGAACG	-0.0455
CTAACGTC	0.0521
GAGGACTA	0.0368
GAGTGACA	0.0371
ACCGCCTG	-0.21
ATCTACCA	0.0706
CCCACCAC	-0.114
GATGGTGA	-0.174
GACTGCGA	0.00432
